# The list shows a part of the results.
# B1: Si Bti9 1b-V5-his (Solanum lycopersicum) (protein)
# chain: MQCNRGCDLALASFYVWRGSNLTLISEMFSTSIADIVSYNNRDNIPNQDSVIAGTRINIPFRCDCLNDGEVLGHAFPYRVKSGDTYDLVARNYSDLTTAQWMMKFNSYPENNIPNTVNLSVVVNCSCGNSDVSKDFGLFVTYPVRAEDNLTSVASAANVSEDIIRRYNPAAVSILDIGQGIIYIPGRDRNGNFPPLPTSTDGLSGGAKKGGRADPAFLYKVVINSKLEGKPIPNPLLGLDSTRTGHHHHHH
# What was measured:
# Assay in all cases: glycan array binding signal (z-score within array); higher = stronger binding
# Settings in all cases: glycan notation: IUPAC condensed, linker removed
# [1] = biological target: Fuc(a1-2)Gal
# Summary of the method: (§1)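 Glycan array binding is given as a within-array Z-score, which can be read as non-binding when negative. The arrays, 3228 of them, came from the Consortium for Functional Glycomics database and were retained only where the protein sequence was available. Z-scores were averaged across arrays of the same protein sequence at different concentrations or buffers and across linkers.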
# [2] = biological target: Fuc(a1-2)Gal(b1-3)GalNAc
# Summary of the method: as §1
# [3] = biological target: Fuc(a1-2)Gal(b1-3)GalNAc(a1-3)[Fuc(a1-2)]Gal(b1-4)Glc
# Summary of the method: as §1
# [4] = biological target: Fuc(a1-2)Gal(b1-3)GalNAc(a1-3)[Fuc(a1-2)]Gal(b1-4)GlcNAc
# Summary of the method: as §1
# [5] = biological target: Fuc(a1-2)Gal(b1-3)GalNAc(b1-3)Gal
# Summary of the method: as §1
# [6] = biological target: Fuc(a1-2)Gal(b1-3)GalNAc(b1-3)Gal(a1-4)Gal(b1-4)Glc
# Summary of the method: as §1
# [7] = biological target: Fuc(a1-2)Gal(b1-3)GalNAc(b1-4)[Neu5Ac(a2-3)]Gal(b1-4)Glc
# Summary of the method: as §1
# [8] = biological target: Fuc(a1-2)Gal(b1-3)GlcNAc
# Summary of the method: as §1
# [9] = biological target: Fuc(a1-2)Gal(b1-3)GlcNAc(b1-2)Man(a1-3)[Fuc(a1-2)Gal(b1-3)GlcNAc(b1-2)Man(a1-6)]Man(b1-4)GlcNAc(b1-4)GlcNAc
# Summary of the method: as §1
# [10] = biological target: Fuc(a1-2)Gal(b1-3)GlcNAc(b1-2)Man(a1-3)[Fuc(a1-2)Gal(b1-3)GlcNAc(b1-2)Man(a1-6)]Man(b1-4)GlcNAc(b1-4)[Fuc(a1-6)]GlcNAc
# Summary of the method: as §1
# [11] = biological target: Fuc(a1-2)Gal(b1-3)GlcNAc(b1-3)Gal(b1-4)Glc
# Summary of the method: as §1
# [12] = biological target: Fuc(a1-2)Gal(b1-3)GlcNAc(b1-3)GalNAc
# Summary of the method: as §1
# [13] = biological target: Fuc(a1-2)Gal(b1-3)GlcNAc(b1-3)[Fuc(a1-2)Gal(b1-3)GlcNAc(b1-6)]GalNAc
# Summary of the method: as §1
# [14] = biological target: Fuc(a1-2)Gal(b1-3)GlcNAc(b1-3)[Gal(b1-4)GlcNAc(b1-6)]Gal(b1-4)Glc
# Summary of the method: as §1
# [15] = biological target: Fuc(a1-2)Gal(b1-3)GlcNAc(b1-3)[Neu5Ac(a2-6)Gal(b1-4)GlcNAc(b1-6)]Gal(b1-4)Glc
# Summary of the method: as §1
# [16] = biological target: Fuc(a1-2)Gal(b1-3)GlcNAc6S
# Summary of the method: as §1
# [17] = biological target: Fuc(a1-2)Gal(b1-3)[Fuc(a1-4)]GlcNAc
# Summary of the method: as §1
# [18] = biological target: Fuc(a1-2)Gal(b1-3)[Fuc(a1-4)]GlcNAc(b1-2)Man(a1-3)[Fuc(a1-2)Gal(b1-3)[Fuc(a1-4)]GlcNAc(b1-2)Man(a1-3)]Man(b1-4)GlcNAc(b1-4)GlcNAc
# Summary of the method: as §1
# [19] = biological target: Fuc(a1-2)Gal(b1-3)[Fuc(a1-4)]GlcNAc(b1-2)Man(a1-3)[Fuc(a1-2)Gal(b1-3)[Fuc(a1-4)]GlcNAc(b1-2)Man(a1-6)]Man(b1-4)GlcNAc(b1-4)[Fuc(a1-6)]GlcNAc(b1-4)[Fuc(a1-6)]GlcNAc
# Summary of the method: as §1
# [20] = biological target: Fuc(a1-2)Gal(b1-3)[Fuc(a1-4)]GlcNAc(b1-3)[Fuc(a1-3)[Gal(b1-4)]GlcNAc(b1-6)]Gal(b1-4)Glc
# Summary of the method: as §1
# [21] = biological target: Fuc(a1-2)Gal(b1-3)[Fuc(a1-4)]GlcNAc(b1-3)[Gal(b1-4)GlcNAc(b1-6)]Gal(b1-4)Glc
# Summary of the method: as §1
# [22] = biological target: Fuc(a1-2)Gal(b1-4)Glc
# Summary of the method: as §1
# [23] = biological target: Fuc(a1-2)Gal(b1-4)Glc6S
# Summary of the method: as §1
# [24] = biological target: Fuc(a1-2)Gal(b1-4)GlcNAc
# Summary of the method: as §1
# [25] = biological target: Fuc(a1-2)Gal(b1-4)GlcNAc(b1-2)Man
# Summary of the method: as §1
# [26] = biological target: Fuc(a1-2)Gal(b1-4)GlcNAc(b1-2)Man(a1-3)[Fuc(a1-2)Gal(b1-4)GlcNAc(b1-2)Man(a1-6)]Man(b1-4)GlcNAc(b1-4)GlcNAc
# Summary of the method: as §1
# [27] = biological target: Fuc(a1-2)Gal(b1-4)GlcNAc(b1-2)Man(a1-3)[Fuc(a1-2)Gal(b1-4)GlcNAc(b1-2)Man(a1-6)]Man(b1-4)GlcNAc(b1-4)[Fuc(a1-6)]GlcNAc
# Summary of the method: as §1
# [28] = biological target: Fuc(a1-2)Gal(b1-4)GlcNAc(b1-2)[Fuc(a1-2)Gal(b1-4)GlcNAc(b1-4)]Man(a1-3)[Fuc(a1-2)Gal(b1-4)GlcNAc(b1-2)Man(a1-6)]Man(b1-4)GlcNAc(b1-4)GlcNAc
# Summary of the method: as §1
# [29] = biological target: Fuc(a1-2)Gal(b1-4)GlcNAc(b1-3)Gal(b1-4)GlcNAc
# Summary of the method: as §1
# [30] = biological target: Fuc(a1-2)Gal(b1-4)GlcNAc(b1-3)Gal(b1-4)GlcNAc(b1-2)Man(a1-3)[Fuc(a1-2)Gal(b1-4)GlcNAc(b1-3)Gal(b1-4)GlcNAc(b1-2)Man(a1-6)]Man(b1-4)GlcNAc(b1-4)GlcNAc
# Summary of the method: as §1
# [31] = biological target: Fuc(a1-2)Gal(b1-4)GlcNAc(b1-3)Gal(b1-4)GlcNAc(b1-3)Gal(b1-4)GlcNAc
# Summary of the method: as §1
# [32] = biological target: Fuc(a1-2)Gal(b1-4)GlcNAc(b1-3)GalNAc
# Summary of the method: as §1
# [33] = biological target: Fuc(a1-2)Gal(b1-4)GlcNAc(b1-3)[Fuc(a1-2)Gal(b1-4)GlcNAc(b1-6)]GalNAc
# Summary of the method: as §1
# [34] = biological target: Fuc(a1-2)Gal(b1-4)GlcNAc(b1-3)[Fuc(a1-3)[Gal(b1-4)]GlcNAc(b1-6)]Gal(b1-4)Glc
# Summary of the method: as §1
# [35] = biological target: Fuc(a1-2)Gal(b1-4)GlcNAc(b1-6)GalNAc
# Summary of the method: as §1
# [36] = biological target: Fuc(a1-2)Gal(b1-4)GlcNAc6S
# Summary of the method: as §1
# [37] = biological target: Fuc(a1-2)Gal(b1-4)[Fuc(a1-3)]GlcNAc
# Summary of the method: as §1
# [38] = biological target: Fuc(a1-2)Gal(b1-4)[Fuc(a1-3)]GlcNAc(b1-2)Man(a1-3)[Fuc(a1-2)Gal(b1-4)[Fuc(a1-3)]GlcNAc(b1-2)Man(a1-6)]Man(b1-4)GlcNAc(b1-4)[Fuc(a1-6)]GlcNAc
# Summary of the method: as §1
# [39] = biological target: Fuc(a1-2)Gal(b1-4)[Fuc(a1-3)]GlcNAc(b1-2)[Fuc(a1-2)Gal(b1-4)[Fuc(a1-3)]GlcNAc(b1-4)]Man(a1-3)[Fuc(a1-2)Gal(b1-4)[Fuc(a1-3)]GlcNAc(b1-2)Man(a1-6)]Man(b1-4)GlcNAc(b1-4)GlcNAc
# Summary of the method: as §1
# [40] = biological target: Fuc(a1-2)Gal(b1-4)[Fuc(a1-3)]GlcNAc(b1-3)Gal(b1-4)[Fuc(a1-3)]GlcNAc
# Summary of the method: as §1
# [41] = biological target: Fuc(a1-2)Gal(b1-4)[Fuc(a1-3)]GlcNAc(b1-3)Gal(b1-4)[Fuc(a1-3)]GlcNAc(b1-3)Gal(b1-4)[Fuc(a1-3)]GlcNAc
# Summary of the method: as §1
# [42] = biological target: Fuc(a1-2)Gal(b1-4)[Fuc(a1-3)]GlcNAc(b1-3)GalNAc
# Summary of the method: as §1
# [43] = biological target: Fuc(a1-2)Gal(b1-4)[Fuc(a1-3)]GlcNAc(b1-3)[Neu5Ac(a2-6)Gal(b1-4)GlcNAc(b1-6)]Gal(b1-4)Glc
# Summary of the method: as §1
# [44] = biological target: Fuc(a1-2)Gal3S(b1-4)GlcNAc
# Summary of the method: as §1
# [45] = biological target: Fuc(a1-2)Gal6S(b1-3)GlcNAc
# Summary of the method: as §1
binder,measurement,setting,value
B1,glycan array binding signal (z-score),[1],-0.052
same,glycan array binding signal (z-score),[2],-0.261
same,glycan array binding signal (z-score),[3],-0.052
same,glycan array binding signal (z-score),[4],-0.137
same,glycan array binding signal (z-score),[5],0.024
same,glycan array binding signal (z-score),[6],-0.123
same,glycan array binding signal (z-score),[7],-0.101
same,glycan array binding signal (z-score),[8],0.033
same,glycan array binding signal (z-score),[9],-0.021
same,glycan array binding signal (z-score),[10],0
same,glycan array binding signal (z-score),[11],-0.178
same,glycan array binding signal (z-score),[12],-0.034
same,glycan array binding signal (z-score),[13],0.167
same,glycan array binding signal (z-score),[14],-0.17
same,glycan array binding signal (z-score),[15],-0.066
same,glycan array binding signal (z-score),[16],-0.157
same,glycan array binding signal (z-score),[17],-0.351
same,glycan array binding signal (z-score),[18],-0.045
same,glycan array binding signal (z-score),[19],-0.225
same,glycan array binding signal (z-score),[20],-0.231
same,glycan array binding signal (z-score),[21],-0.239
same,glycan array binding signal (z-score),[22],-0.123
same,glycan array binding signal (z-score),[23],-0.231
same,glycan array binding signal (z-score),[24],-0.23
same,glycan array binding signal (z-score),[25],-0.132
same,glycan array binding signal (z-score),[26],0.1
same,glycan array binding signal (z-score),[27],0.062
same,glycan array binding signal (z-score),[28],-0.096
same,glycan array binding signal (z-score),[29],-0.322
same,glycan array binding signal (z-score),[30],-0.075
same,glycan array binding signal (z-score),[31],-0.305
same,glycan array binding signal (z-score),[32],-0.217
same,glycan array binding signal (z-score),[33],-0.135
same,glycan array binding signal (z-score),[34],-0.378
same,glycan array binding signal (z-score),[35],-0.001
same,glycan array binding signal (z-score),[36],-0.305
same,glycan array binding signal (z-score),[37],-0.255
same,glycan array binding signal (z-score),[38],0.091
same,glycan array binding signal (z-score),[39],0.037
same,glycan array binding signal (z-score),[40],-0.363
same,glycan array binding signal (z-score),[41],0.047
same,glycan array binding signal (z-score),[42],-0.079
same,glycan array binding signal (z-score),[43],-0.28
same,glycan array binding signal (z-score),[44],-0.259
same,glycan array binding signal (z-score),[45],-0.245

# — the supplement of paper PMC8728848
